Data reported in PubChem BioAssay AID360 (National Center for Advancing Translational Sciences (NCATS), 2006).
About 550 (1.1%) of roughly 48,000 compounds were called active. Another 4% or so got no clear call; they are omitted. No stated cut-off is given here; in the data, active means potency below about 15 µM; inconclusive means mostly about 16 µM to 33 µM; inactive means weaker than that. This is one part of the list.

Target: Lysosomal acid glucosylceramidase (Homo sapiens) (UniProt P04062)
Assay: Glucocerebrosidase;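 further: the screen sought inhibitors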
Settings: purified enzyme, resorufin glucoside fluorescence (screen aimed at inhibitors), 20 min
How it was run: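 Wild-type enzyme at 0.2 nM final in 50mM citric acid/KH2PO4, 10mM sodium taurocholate, 0.01% tween-20, pH 5.9, with resorufin beta-D-glucopyranoside at 30 uM final. Compounds titrated, 20 min at RT, red fluorescence read; AC50 from titration.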
Potency means the concentration at half of the fitted maximal effect.

UniProt P04062, sequence (P04062 whole entry, looked up): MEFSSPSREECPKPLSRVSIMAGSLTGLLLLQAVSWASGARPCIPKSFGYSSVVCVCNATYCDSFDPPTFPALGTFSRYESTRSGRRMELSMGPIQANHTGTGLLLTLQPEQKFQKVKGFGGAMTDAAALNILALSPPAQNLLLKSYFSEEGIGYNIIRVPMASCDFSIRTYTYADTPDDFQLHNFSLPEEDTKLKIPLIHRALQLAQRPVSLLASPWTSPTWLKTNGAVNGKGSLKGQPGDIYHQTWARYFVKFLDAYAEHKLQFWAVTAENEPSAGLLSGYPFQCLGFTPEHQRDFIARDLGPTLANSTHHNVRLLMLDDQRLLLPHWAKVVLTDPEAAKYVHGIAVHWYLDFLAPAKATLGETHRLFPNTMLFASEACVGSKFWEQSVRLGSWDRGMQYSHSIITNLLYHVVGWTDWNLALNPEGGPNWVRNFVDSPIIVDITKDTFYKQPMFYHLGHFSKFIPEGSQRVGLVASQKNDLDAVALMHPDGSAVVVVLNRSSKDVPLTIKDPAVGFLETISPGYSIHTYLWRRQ

Potency, inactive:
Nc1cc(CN2C(=O)c3ccccc3C2=O)cc(Cl)c1O > 76.9 µM, COc1ccc(N2CCN(CCCNC(=O)CN3CCN(Cc4ccccc4C)C3=O)CC2)cc1 > 76.9 µM, COc1ccc(-c2noc(CCC(=O)N3CCN(c4cc(C)ccc4C)CC3)n2)cc1, COc1cccc(-c2cn3nc4c(nc3n2)CCCC4)c1 > 76.9 µM, COC(=O)c1ccccc1NC(=O)NCc1cccnc1 > 76.9 µM, NC(=O)COC(=O)c1ccc(Oc2ccccc2)cc1 > 76.9 µM, Cc1sc2c(c1C)CN(Cc1ccco1)CN2C(=O)c1ccccc1 > 76.9 µM, Cn1c(=O)cc(OCCCC(=O)NCCCN2CCN(Cc3ccccc3)CC2)c2ccccc21 > 76.9 µM, CCOC(=O)c1cc2occc2n1CC(=O)NC1CCC(C)CC1 (stereo not given) > 76.9 µM, Cc1ccc(O)c(NC(=O)CCCC(=O)O)c1 > 76.9 µM, CC(NC(=O)CC1Nc2ccccc2NC1=O)c1ccccc1 (stereo not given) > 76.9 µM, C=CCn1c(SCC(=O)NCC2CCCO2)nc2scc(-c3ccco3)c2c1=O (stereo not given) > 76.9 µM, Cc1nc(CNS(=O)(=O)c2ccc3c(c2)OCCO3)cs1 > 76.9 µM, NC1=NC(=O)CC(C(=O)NCCc2ccccc2)S1 (stereo not given) > 76.9 µM, CC(C)(C)OC(=O)N1CCC(c2c(C(=O)O)cnn2-c2ccccc2Cl)CC1 > 76.9 µM, O=C(CSc1nnc(-c2cccnc2)n1Cc1ccccc1)N1CCOCC1 > 76.9 µM, CC(=O)Oc1ccc2oc(=O)c3c(c2c1)CCCN3C(=O)CN1CCN(c2ncccn2)CC1 > 76.9 µM, CC(=O)c1cccc(NC(=O)NCc2ccco2)c1 > 76.9 µM, COCCN(CC(=O)NCc1ccc(F)cc1)C(=O)CCC(=O)Nc1ccccn1 > 76.9 µM, CCOC(=O)C1[C@H]2C(=O)N(C(C)c3ccc(OC)cc3)C[C@]23C=C[C@H]1O3 (stereo not given in full) > 76.9 µM, CCc1cc2ccccc2nc1SCC(=O)Nc1cc(C)on1 > 76.9 µM, CCc1nnc(NC(=O)CSc2nnc(-c3ccccc3O)n2-c2ccc(C)cc2C)s1, Cc1cc(S(=O)(=O)NC2CCCCC2)ccc1OCC(=O)NCc1ccccn1 > 76.9 µM, CN1CCN(/C=N/c2c(C#N)cnn2C)CC1 > 76.9 µM, Cc1cc(Nc2ccc3c(c2)OCCO3)n2ncnc2n1 > 76.9 µM, CCOC(=O)c1[nH]c(C)c(C(=O)N2CCN(c3cccc(Cl)c3)CC2)c1C > 76.9 µM, CCCc1cc(=O)n2[nH]c(NCc3cccs3)nc2n1 > 76.9 µM, CCCCNC(=O)NCC(=O)Nc1ccc(F)c(F)c1 > 76.9 µM, O=C1CCCc2c1nn(-c1ccccc1)[n+]2[O-] > 76.9 µM, Cc1ccc(S(=O)(=O)NCC(=O)N(CC(=O)NCC2CCCO2)C2CCCC2)cc1 (stereo not given) > 76.9 µM, CS(=O)(=O)c1ccc(Cl)c(C(=O)O)c1 > 76.9 µM, O=C(Nc1cccc(S(=O)(=O)C(F)F)c1)c1ccc(Cl)c(S(=O)(=O)N2CCOCC2)c1 > 76.9 µM, CCC1(C(=O)OC)NC(c2ccco2)C2C(=O)N(c3ccccc3)C(=O)C21 (stereo not given) > 76.9 µM, Cc1nnc(SCC(=O)Nc2ncc3c(n2)CCCC3=O)s1 > 76.9 µM, O=C(Cc1ccc(Br)cc1)N1CCCCCC1 > 76.9 µM, C=CCn1c(SCC(=O)c2cc(C)n(CC3CCCO3)c2C)nnc1-c1ccccc1 (stereo not given) > 76.9 µM, CC1(c2ccncc2)Nc2ccccc2-c2nc3ccccc3n21 (stereo not given) > 76.9 µM, COc1ccccc1NS(=O)(=O)c1ccc(OC)c(OC)c1 > 76.9 µM, COc1cc(CNCCO)ccc1OCC(=O)Nc1ccc(Br)cc1 > 76.9 µM, O=C(c1ccccc1)N1CCN(C(=O)N2CCCCC2)CC1 > 76.9 µM, O=C(CN(C(=O)C1COc2ccccc2O1)c1ccccc1)NCC1CCCO1 (stereo not given) > 76.9 µM, COc1ccc(Br)cc1C(=O)O > 76.9 µM, COCCSc1ccccc1C(=O)N1CCN(Cc2ccc3c(c2)OCO3)CC1 > 76.9 µM, O=C(c1ccccc1)N1CCN(Cc2ccccc2Br)CC1 > 76.9 µM, CC12C=CC3(O1)C(C(=O)N(c1cccnc1)C3C(=O)NC1CCCCC1)C2C(=O)Nc1ccccc1 (stereo not given) > 76.9 µM, CCn1nnnc1SCC(=O)N(C1CCCCC1)C1CCCCC1 > 76.9 µM, CCc1ccc(C(=O)N2CCCC2)s1 > 76.9 µM, COCCn1nnnc1SCC(=O)c1ccccc1 > 76.9 µM, Cc1cc2n(n1)C(c1ccco1)Nc1ccccc1-2 (stereo not given) > 76.9 µM, O=C(NCC1CCCO1)C(C(=O)c1ccc(F)cc1)n1ccccc1=O (stereo not given) > 76.9 µM, COc1ccc(OC)c(NC(=O)CCN2CCN(Cc3ccccc3)CC2)c1 > 76.9 µM, O=C(C1CCC(Cn2c(=S)[nH]c3ccccc3c2=O)CC1)N1CCN(c2ccccc2)CC1 (stereo not given) > 76.9 µM, Cc1cc(NCc2ccc(F)cc2Cl)n2nnnc2n1 > 76.9 µM, CCOC(=O)C(Cc1cc(C(C)=O)ccc1OC(C)C)C(=O)OCC > 76.9 µM, CCC(=O)Nc1ccc(Br)c(Cl)c1 > 76.9 µM, CC1C(C#N)=C(N)OC2=C1C(=O)CCC2 (stereo not given) > 76.9 µM, CCOc1ccccc1N(CC(=O)NCC1CCCO1)C(=O)CCC(=O)Nc1ccccn1 (stereo not given) > 76.9 µM, O=C1c2ccccc2C(=O)N1c1ccc(S(=O)(=O)N2CCN(c3ccccc3)CC2)cc1 > 76.9 µM, CCN1CCN(C(=O)C2c3cc(OC)c(OC)cc3C(=O)N3CCc4ccccc4C23)CC1 (stereo not given) > 76.9 µM, COc1ccc(Oc2ncnc3c2oc2ccc(Br)cc23)cc1 > 76.9 µM, COc1ccc(N2C(=O)CCC(C(=O)N(C)C3CCCCC3)C2c2ccc(OC)c(OC)c2)cc1 (stereo not given) > 76.9 µM, Cc1[nH]c2ccccc2c1C(=O)CN1CCCCC1C (stereo not given) > 76.9 µM, CCC(C)NC(=O)c1ccc(NC(=O)C2CCCO2)cc1 (stereo not given) > 76.9 µM, COc1ccc(N(CC(=O)Nc2ccc(C)cn2)S(=O)(=O)c2c(C)noc2C)cc1 > 76.9 µM, Cc1c(C(=O)NCC2COc3ccccc3O2)oc2ccc(S(=O)(=O)N3CCOCC3)cc12 (stereo not given) > 76.9 µM, COc1cccc(C(=O)N2CCN(S(=O)(=O)Cc3ccccc3)CC2)c1 > 76.9 µM, Cc1ccc(Cn2nc(C)c(NC(=O)c3noc4c3CCCCC4)c2C)cc1 > 76.9 µM, CCOC(=O)c1ccc(NC(=O)CCc2ccc(CC)o2)cc1 > 76.9 µM, CCOC(=O)N1CCN(C(=O)CN(Cc2ccccc2)S(C)(=O)=O)CC1 > 76.9 µM, Cc1c(C(=O)Nc2ccccc2N2CCOCC2)sc2nc3n(c(=O)c12)CCC3 > 76.9 µM, CCCCOc1ccc(CSc2ncn[nH]2)cc1 > 76.9 µM, Cc1ccc(C(=O)O)cc1S(=O)(=O)N1CCOCC1 > 76.9 µM, CCOC(=O)CSc1nc2c(c(=O)[nH]c(=O)n2C)n1C/C=C(/C)Cl > 76.9 µM, COCC(=O)N(C)c1nnc(-c2cnc(C)cn2)s1 > 76.9 µM, CC(=O)N1CCN(c2ccccc2NC(=O)COc2cc(C)ccc2C(C)C)CC1 > 76.9 µM, COCCCn1c(=N)c(C(=O)NCC2CCCO2)cc2c(=O)n3cccc(C)c3nc21 (stereo not given) > 76.9 µM, COc1cccc(OC)c1NC(=O)C1CCCN1C(=O)NCc1ccccc1 (stereo not given) > 76.9 µM, CCC(=O)N1CCCc2cc(S(=O)(=O)NCc3cccs3)ccc21 > 76.9 µM, O=C(CN1CCC(n2nnc3cc(C(F)(F)F)ccc32)CC1)N1CCc2ccccc21, O=c1c2ccccc2c(C=NC2CCS(=O)(=O)C2)c(O)n1-c1ccccc1 (stereo not given) > 76.9 µM, COCc1cc(C)n(CC(=O)Nc2ccccc2OC)c(=O)c1C#N > 76.9 µM, CCOC(=O)Nc1ccc(OC)cc1S(=O)(=O)N1CCCCC1 > 76.9 µM, COc1ccc(OC)c2[nH]c(=O)c(CCNC(=O)c3ccc(S(=O)(=O)N4CCCC4)cc3)cc12 > 76.9 µM, CC(=O)N1CCc2cc(S(=O)(=O)CCC(=O)N3CCN(c4ccccn4)CC3)ccc21 > 76.9 µM, CCOC(=O)N1CCN(C(=O)N2CCOCC2)CC1 > 76.9 µM, CCOC(=O)c1c(CN2CCOCC2)n(-c2ccccc2)c2ccc(O)cc12 > 76.9 µM, CC(C)C[C@H](NC(=O)NCc1ccc(Cl)cc1)C(=O)O > 76.9 µM, Cn1c(=O)c2cn(Cc3ccc(Cl)cc3)cc2n(C)c1=O > 76.9 µM, O=C1CC(N2CCC(O)(c3ccc(Cl)cc3)CC2)C(=O)N1Cc1ccc(N2CCCC2=O)cc1 (stereo not given) > 76.9 µM, COc1cc(C(C)=O)ccc1OCC(O)CN1CCN(S(=O)(=O)c2ccccc2)CC1 (stereo not given) > 76.9 µM
